Results: article PMC6919601, “Identification of Plasmodium dipeptidyl aminopeptidase allosteric inhibitors by high throughput screening” (PLoS ONE, 2019)
Where “and” joins values, the source holds several entries; their conditions need not be identical. Equal entries are not always repeated. The campaign covered roughly 110,000 compounds. About 230 (0.21%) showed an effect of 50% or more. This is one part of the list.
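Further: 30 min substrate incubation versus DMSO and 10 µM JCP410 controls.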

The compounds below were run against DPAP1 (Plasmodium falciparum, UniProt Q8IIJ9) (assay: primary screen, percent inhibition; read by cleavage of a fluorogenic dipeptide substrate; higher = more effect of the substance).
Sequence of DPAP1 (Q8IIJ9 whole entry, looked up): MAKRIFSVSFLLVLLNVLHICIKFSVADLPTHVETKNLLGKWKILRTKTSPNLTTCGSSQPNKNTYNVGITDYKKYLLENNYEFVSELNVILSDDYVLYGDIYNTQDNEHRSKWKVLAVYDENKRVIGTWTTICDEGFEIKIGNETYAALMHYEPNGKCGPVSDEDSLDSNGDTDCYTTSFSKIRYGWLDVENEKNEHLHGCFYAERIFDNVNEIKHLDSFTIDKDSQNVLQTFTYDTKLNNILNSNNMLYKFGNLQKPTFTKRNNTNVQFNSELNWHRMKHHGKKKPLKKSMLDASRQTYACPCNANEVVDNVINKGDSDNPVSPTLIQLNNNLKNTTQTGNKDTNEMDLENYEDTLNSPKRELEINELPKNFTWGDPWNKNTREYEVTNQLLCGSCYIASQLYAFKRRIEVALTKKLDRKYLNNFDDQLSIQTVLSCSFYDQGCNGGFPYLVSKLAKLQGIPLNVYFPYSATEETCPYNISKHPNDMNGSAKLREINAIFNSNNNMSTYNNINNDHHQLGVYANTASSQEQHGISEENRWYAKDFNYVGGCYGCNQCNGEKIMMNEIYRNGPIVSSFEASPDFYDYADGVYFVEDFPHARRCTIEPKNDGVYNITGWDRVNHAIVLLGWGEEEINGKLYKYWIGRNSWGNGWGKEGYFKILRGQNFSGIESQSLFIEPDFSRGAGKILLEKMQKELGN
Design: species or system P. falciparum D10 trophozoite lysates; single well
With `Cc1ccc(C(=O)Nc2ccc(NC(=O)C(F)(F)F)cc2)cc1` the “% Inhibition @ 10 uM” value was -6.82%. For `CCOc1ccc(C(=O)NCC(C)C)cc1`, the “% Inhibition @ 10 uM” value was -1.36%. For `O=C(c1cc2nc(-c3cccs3)cc(C(F)(F)F)n2n1)N1CCCCC1`, the “% Inhibition @ 10 uM” value was -4.15%. In the case of `Cc1ccc2nc(NC(=O)c3c(O)c4ccccc4n(C)c3=O)sc2c1`, the “% Inhibition @ 10 uM” value is reported as 11.2%. `Cc1c2cnn(CC(=O)NCCN3CCCCCC3)c(=O)c2c(C)n1Cc1ccccc1F` was tested, and the “% Inhibition @ 10 uM” value was -2.17%. `COc1ccc(-c2nc(-c3cccnc3)[nH]c2-c2ccc(OC)cc2)cc1` was tested, and the “% Inhibition @ 10 uM” value was -3.08%. In the case of `CC(CCc1ccc(O)cc1)NCCC1=CCCCC1` (centres unmarked), the “% Inhibition @ 10 uM” value is reported as 1.57%. With `Cc1ccc(S(=O)(=O)N2CCOCC(=O)NCCOCCNC(=O)COCC2)cc1` the “% Inhibition @ 10 uM” value was -9.6%. With `N#CC1=C(N)Oc2[nH]nc(-c3ccccc3)c2C1c1ccccc1Cl` (centres unmarked) the “% Inhibition @ 10 uM” value was 4.32%. For `CCc1cc2c(cc3c(=O)n(CC(=O)NCc4ccc5c(c4)OCO5)nc(CC)n32)s1`, the “% Inhibition @ 10 uM” value was 3.29%. In the case of `Cc1ccc(C)c(CN2CC(C)OC(C)C2)c1` (centres unmarked), the “% Inhibition @ 10 uM” value is reported as -4.3%. With `CO/N=C(/C)c1ccc(OCc2ccccc2)cc1` the “% Inhibition @ 10 uM” value was 0.997%. `Sc1ccccc1-c1nc(Cc2ccccc2)no1` was tested, and the “% Inhibition @ 10 uM” value was 3.44%. In the case of `Cc1nn(C)c(C(=O)NC2C3CC4CC(C3)CC2C4)c1Cl` (centres unmarked), the “% Inhibition @ 10 uM” value is reported as -0.725%. In the case of `Nc1nc(O)c2nccnc2n1`, the “% Inhibition @ 10 uM” value is reported as 1.91%. For `c1ccc(-c2ccc(N3CCCCCC3)nn2)cc1`, the “% Inhibition @ 10 uM” value was 0.51%. `COc1cccc(-c2cc(C(=O)NCC3CCCO3)on2)c1` (centres unmarked) was tested, and the “% Inhibition @ 10 uM” value was -3.27%. `COc1ccc(-c2nc(-c3ccc(Br)cc3)c(-c3ccccc3Br)[nH]2)cc1` was tested, and the “% Inhibition @ 10 uM” value was 4.61%. For `O=C(CCN1CCCC1)Nc1c2c(cc3c1CCC3)CCC2`, the “% Inhibition @ 10 uM” value was 0.163%. With `O=C(c1ccccc1)c1ccc2c(c1)NC=c1c([nH]c(=O)n(-c3ccccc3)c1=O)=N2` the “% Inhibition @ 10 uM” value was -2.56%. For `O=C(NCc1cccnc1)c1ccc2ccccc2c1`, the “% Inhibition @ 10 uM” value was -9.25%. With `COc1ccc2ccccc2c1C1C(C#N)=C(N)Oc2[nH]nc(C)c21` (centres unmarked) the “% Inhibition @ 10 uM” value was -2.45%. `FC(F)(F)c1cc(-c2cccs2)[nH]n1` was tested, and the “% Inhibition @ 10 uM” value was 0.558%. With `Clc1cccc(OCCN2CCCCC2)c1` the “% Inhibition @ 10 uM” value was 0.565%. `OCCOCCN1CCN(C2CCCCCC2)CC1` was tested, and the “% Inhibition @ 10 uM” value was 3.48%. `C=CCOC(=O)c1cc(-c2ccc(C=C3C(=O)N(C)C(=O)N(C)C3=O)o2)ccc1Cl` was tested, and the “% Inhibition @ 10 uM” value was 5.94%. In the case of `CCOC(=O)c1cn(C)c(C(=O)OCC)c1O`, the “% Inhibition @ 10 uM” value is reported as 1.72%. In the case of `N#CC1=C(N)Oc2c(c(O)nc3ccccc23)C1c1ccncc1` (centres unmarked), the “% Inhibition @ 10 uM” value is reported as 6.24%. For `COc1cccc(C(=O)Nc2ccc(-c3ccc(NC(=O)c4cccc(OC)c4)cc3)cc2)c1`, the “% Inhibition @ 10 uM” value was 5.85%. In the case of `CSCCC(NC(=O)/C(=C\c1ccco1)NC(=O)c1ccc(Br)cc1)C(=O)O` (centres unmarked), the “% Inhibition @ 10 uM” value is reported as -1.93%. `CCOc1ccc(-c2csc(-c3cc4c(ccc5ccccc54)oc3=O)n2)cc1` was tested, and the “% Inhibition @ 10 uM” value was -5.96%. In the case of `COc1cccc(NC(=O)CN(c2cc(C)ccc2OC)S(=O)(=O)c2ccccc2)c1`, the “% Inhibition @ 10 uM” value is reported as 0.538% and 3.56%. With `Cc1ccsc1CN(C(=O)c1ccccc1F)C1CCS(=O)(=O)C1` (centres unmarked) the “% Inhibition @ 10 uM” value was 0.569%. `CCN(CC)C(=O)C1CCCN(Cc2ccc(OC)c(C)c2)C1` (centres unmarked) was tested, and the “% Inhibition @ 10 uM” value was -3.87%. `Cc1onc(-c2ccccc2Cl)c1C(=O)NC1CC1` was tested, and the “% Inhibition @ 10 uM” value was 2.36%. In the case of `COc1ccc(-c2cc(C(=O)Nc3c(C)nn(Cc4ccc(C)cc4)c3C)no2)cc1`, the “% Inhibition @ 10 uM” value is reported as -4.79%. In the case of `CCN(CC)S(=O)(=O)c1ccc(F)c(C(=O)NCCC(C)C)c1`, the “% Inhibition @ 10 uM” value is reported as -7.57%. `CC1CC(C)CN(C(=O)C2CCC(CNS(=O)(=O)c3ccc(Br)s3)CC2)C1` (centres unmarked) was tested, and the “% Inhibition @ 10 uM” value was -2.56%. For `COCCCNc1cc(C)nc2c(-c3ccc(Cl)cc3)c(C)nn12`, the “% Inhibition @ 10 uM” value was 2.35%. In the case of `O=C(Nc1nccs1)C1CCC(CNS(=O)(=O)c2cccc3nsnc23)CC1` (centres unmarked), the “% Inhibition @ 10 uM” value is reported as 4.54%. In the case of `CCc1ccc(OCC(=O)NCc2ccc(OC)cc2)c(Br)c1`, the “% Inhibition @ 10 uM” value is reported as 0.83%. `c1ccc(-c2nnc(N3CCOCC3)nc2-c2ccccc2)cc1` was tested, and the “% Inhibition @ 10 uM” value was -1.5%. In the case of `CNS(=O)(=O)c1cn(CC(=O)N2CCN(Cc3ccccc3)CC2)cc1S(=O)(=O)NC`, the “% Inhibition @ 10 uM” value is reported as -3.99%. For `CCOc1ccc(-c2cc(NC(=O)Cn3ncc4c(=O)oc5ccc(C)cc5c43)on2)cc1`, the “% Inhibition @ 10 uM” value was -5.25%. In the case of `CC(C)c1ccc(N(CC(=O)N2CCc3ccccc3C2)S(C)(=O)=O)cc1`, the “% Inhibition @ 10 uM” value is reported as 0.472%. With `O=S(=O)(c1ccc(-c2cc(C(F)(F)F)no2)s1)N1CCN(c2ncccn2)CC1` the “% Inhibition @ 10 uM” value was -2.5%. `O=C(/C=C/C=C/c1ccccc1)c1ccc(Cl)cc1` was tested, and the “% Inhibition @ 10 uM” value was -2.13%. With `COc1ccc2cc3c(N)nn(C(=O)c4cncc(Br)c4)c3nc2c1` the “% Inhibition @ 10 uM” value was 0.809%. `Cc1onc(-c2ccccc2Cl)c1C(=O)N1CCN(c2ccccn2)CC1` was tested, and the “% Inhibition @ 10 uM” value was 1.84%. `CC(C)SC1=NSC2=NC(=O)/C(=C\c3ccc4c(c3)OCO4)C(=N)N21` was tested, and the “% Inhibition @ 10 uM” value was 1.97%. In the case of `COc1cc(NS(=O)(=O)c2cc(Cl)ccc2OC)c(OC)cc1Cl`, the “% Inhibition @ 10 uM” value is reported as -3.95%. For `OC1CCN(Cc2c(Cl)cccc2Cl)CC1`, the “% Inhibition @ 10 uM” value was -0.603%. With `O=S(=O)(c1ccc(Sc2ccc(S(=O)(=O)N3CCOCC3)cc2)cc1)N1CCOCC1` the “% Inhibition @ 10 uM” value was -6.22%. In the case of `Cc1ccc(CNC(=O)CNS(=O)(=O)c2cccc3nsnc23)cc1`, the “% Inhibition @ 10 uM” value is reported as -5.76%. `Cc1cc(C)cc(-n2c(C)cc(/C=C3\NC(=O)NC3=O)c2C)c1` was tested, and the “% Inhibition @ 10 uM” value was 9.47%. In the case of `C=CCN1C(=O)/C(=C\Nc2ccc(F)cc2)C(=O)N(CCCC)C1=O`, the “% Inhibition @ 10 uM” value is reported as -1.06%. In the case of `Cn1nnnc1SCCCNCc1cccs1`, the “% Inhibition @ 10 uM” value is reported as -4.71%. With `Cc1ccccc1NC(=O)CC(=O)c1ccccc1` the “% Inhibition @ 10 uM” value was -4.58%. With `CC(C)Cc1c(C#N)c(SCC(N)=O)nc2c1CCCC2` the “% Inhibition @ 10 uM” value was 9.71%. `CCCC(=O)NCc1ccc(CNC(=O)CCC)cc1` was tested, and the “% Inhibition @ 10 uM” value was 3.67%. In the case of `Cc1ccc(-c2nc(CS(=O)(=O)CC(=O)NCCc3c[nH]c4ccccc34)c(C)o2)cc1`, the “% Inhibition @ 10 uM” value is reported as -1.89%. With `COc1ccc(-c2noc(CN3CCC(C(=O)Nc4cccnc4Cl)CC3)n2)cc1OC` the “% Inhibition @ 10 uM” value was 3.43%. With `COc1cccc(-c2nn(C)c3sc(C(=O)NCCCN(C)Cc4ccccc4)cc23)c1` the “% Inhibition @ 10 uM” value was -4.14%. For `CN1CCC(N(C)C2CC3CCC2C3)CC1` (centres unmarked), the “% Inhibition @ 10 uM” value was 1.29%. For `CSc1ccc(CN2CCN(C(=O)c3ccco3)CC2)cc1`, the “% Inhibition @ 10 uM” value was 0.777%.
